Reference: PubChem BioAssay (NCATS)
This list was built around the results that the source calls inconclusive (neither active nor inactive); the mix of calls is not that of the screen. No potency is given beside an inconclusive call; the fits are too rough. Calls of active or inactive are those of the source. Calls come from the whole dose curve; as a rule, active = well fitted cell-killing curve with a large enough effect; inconclusive = small, poorly fitted or top-dose-only effect; inactive = no such curve, though single readings can be large or run the other way.

assay: qHTS of pediatric cancer cell lines to identify multiple opportunities for drug repurposing: Primary screen for SJ-GBM2 cells (AID 1347091); settings: SJ-GBM2 viability, CellTiter-Glo luminescence, 48 h; series mostly up to 46 µM
In short: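 Eight- or eleven-point concentration series, 48 h treatment at 37 degrees C in growth media; readout CellTiter-Glo luminescence. Potency and efficacy were taken from the concentration-response curves.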
Potency is the fitted concentration of half-maximal effect; tags give direction and shape of the fitted curve.

Compound	Potency
COc1ccc(OC)c(CC(C)N)c1 (stereo not drawn)	inactive
C=C[C@@H]1CN2CCC1C[C@H]2[C@H](O)c1ccnc2ccccc12 (stereo partly drawn)	inconclusive [cytotoxic, partial curve, poor fit]
CC(N[C@H]1C[C@H]1c1ccccc1)c1ccc2c(c1)OCCO2 (stereo partly drawn)	inactive
